Reference: PubChem BioAssay AID463173 (ICCB-Longwood Screening Facility, Harvard Medical School, 2010)
Out of some 52,000 compounds screened, about 4,300 (8.3%) were called active. Rule as the data show it: active = survival mostly below about 52% (no sharp cut-off); inactive = mostly above about 56%. This is one part of the list.

Tested on: DeltatarO mutant
Test: growth inhibition of S. aureus wild type versus tarO mutant, primary screen, teichoic acid synthesis inhibitors, RN4220, OD600 (AID 463173)
Conditions: OD600, 18 h, hits give low values, screened at 18.75 µg/mL (by protocol)

| SMILES | survival |
| --- | --- |
| Cc1cccc(NC(=O)c2sc3nc4c(cc3c2N)CCCCCC4)c1C | inactive: 134% |
| COC(=O)c1c(NC(=O)Cc2coc3ccc(C)cc23)sc2c1CCC2 | inactive: 59% |
| COc1ccc(-n2nc(C(=O)Nc3ccc(Cl)cn3)c3c4ccccc4n(C)c3c2=O)cc1Cl | inactive: 88% |
| Cc1ccc(NC(=O)CSc2c3c(nc4ccccc24)CCCC3)cc1F | active: 30% |
| Cc1ccc(CCNC(=O)c2cc(Nc3ccc(C)c(C)c3)nc3ccccc23)cc1 | inactive: 74% |
| CC(C)C1C(=O)Nc2ccc(S(=O)(=O)NCc3ccc(Cl)cc3)cc21 (stereo not drawn) | active: 52% |
| Cc1cc(F)ccc1-n1nnc(C(N)=O)c1C | inactive: 76% |
| Cc1ccccc1Nc1c(-c2cccc(N(C)C)c2)nc2ccc(Br)cn12 | inactive: 98% |
| CC(=O)c1cccc(NC(=O)c2c(-c3ccccc3)c(-c3ccccc3)nn(C)c2=O)c1 | inactive: 57% |
| CN(Cc1ccccc1)c1ccc(-c2nc(-c3ccco3)no2)cc1[N+](=O)[O-] | inactive: 52% |
| O=C(c1ccccc1Cl)N(Cc1ccco1)Cc1ccco1 | inactive: 60% |
| COc1ccc(-c2noc(-c3ccc(N4CCN(c5ccc(OC)cc5)CC4)c([N+](=O)[O-])c3)n2)cc1 | inactive: 47% |
| O=C(Cc1nc2ccccc2[nH]1)N1CCCC1 | inactive: 84% |
| CCOc1ccc(-n2nc(CO)c(C(=O)NCc3cccnc3)n2)cc1 | active: 44% |
| Cc1cccn2c(=O)c(C(=O)NCc3ccccc3Cl)c(O)nc12 | inactive: 65% |
| COc1cccc(N2CCN(C(=O)c3cc4c(=O)n(Cc5ccccc5)ccc4nc3C)CC2)c1 | inactive: 104% |
| COc1cc(C)ccc1OCCCn1c(-c2ccc(Cl)cc2)nc2ccccc2c1=O | inactive: 62% |
| Cc1ccc(NC(=O)CC2SC3=NCCN3C2=O)cc1 (stereo not drawn) | inactive: 85% |
| Cc1cccc(-n2c(SCc3nc(-c4ccccc4C)no3)nnc2-c2ccccc2)c1 | inactive: 74% |
| CN1CCN(c2oc(/C=C/c3ccc(F)cc3)nc2C#N)CC1 | inactive: 76% |

| SMILES | survival |
| --- | --- |
| CC(C)S(=O)(=O)c1oc(-c2ccc(F)cc2)nc1S(=O)(=O)c1ccccc1 | active: 33% |
| OC(CN1CCOCC1)Cn1c2ccccc2c2ccccc21 (stereo not drawn) | inactive: 94% |
| COc1cc(NC(=O)c2nn(-c3ccc(C)cc3)c(=O)c3c2c2ccccc2n3C)cc(OC)c1OC | inactive: 80% |
| CCOC(=O)c1ccccc1NS(=O)(=O)c1ccc(N2CCCCS2(=O)=O)cc1 | inactive: 90% |
| CCc1nn(CC(=O)NC(C)CC)c(=O)c2cc3c(OC)cccc3n12 (stereo not drawn) | inactive: 128% |
| Cc1ccc(C)c(N2CCN(S(=O)(=O)c3ccc(-c4cc(C(F)(F)F)on4)s3)CC2)c1 | inactive: 88% |
| Nc1cc[n+](CC(O)CO)cc1 (stereo not drawn) | inactive: 65% |
| Cc1nc(Nc2nc3ccccc3o2)nc(-c2ccc(Cl)cc2)c1C#N | inactive: 71% |
| Cc1ccsc1CN(Cc1ccco1)C(=O)c1ccc(Cl)cc1 | active: 34% |
| O=C(Nc1cc(C(F)(F)F)ccc1Cl)c1cc(-c2cccs2)nc2ccccc12 | inactive: 86% |
| Cc1cc(C)n(C(=O)CNC(=O)Cc2ccccc2)n1 | inactive: 89% |
| Cc1cc(C)c(S(=O)(=O)NCCc2sc(-c3cccnc3)nc2C)c(C)c1 | inactive: 117% |
| COc1ccc(-c2ccc(/C=N/NC(N)=O)o2)cc1 | inactive: 110% |
| Cc1cc(S(=O)(=O)Nc2cc3c(cc2Cl)n(C)c(=O)c(=O)n3C)ccc1F | inactive: 68% |
| Cn1c(=O)c2cc(C(=O)N3CCN(c4cccc(C(F)(F)F)c4)CC3)sc2c2ccccc21 | inactive: 92% |
| O=C(CN1C(=O)COc2ccc(S(=O)(=O)N3CCOCC3)cc21)Nc1ccc(F)c(Cl)c1 | inactive: 106% |
| Cc1c(Cl)cccc1NC(=O)C1CCCN(C(=O)c2cnn(-c3ccccc3)c2-n2cccc2)C1 (stereo not drawn) | inactive: 91% |
| COc1cc(OC)c(N(C)C(=O)c2cn(C)c(=O)c3cc(OC)c(OC)cc23)cc1Cl | inactive: 68% |
| O=C(Nc1nc2c(F)cc(F)cc2s1)c1ccc2c(c1)OCCO2 | inactive: 85% |
| CCc1ccccc1NC(=O)CSc1nc(C)c(C(=O)Nc2ccccc2)c(-c2ccc(Cl)cc2)c1C#N | inactive: 72% |

| SMILES | survival |
| --- | --- |
| Cc1ccc(NC(=O)C2CCN(S(=O)(=O)c3cccc4nonc34)CC2)c(Cl)c1 | inactive: 87% |
| O=C(Nc1ccc(-c2nc3ccccc3s2)c(O)c1)c1ccc(Br)cc1 | inactive: 87% |
| CCOC(=O)c1c(C)[nH]c(C)c1S(=O)(=O)N1CCC(C(=O)NCc2cccc(C)c2)CC1 | inactive: 87% |
| CC1CCc2c(sc3nc(C(C)C)n4c(SCC(=O)NCc5ccco5)nnc4c23)C1 (stereo not drawn) | inactive: 103% |
| Cc1nn(S(=O)(=O)c2ccc(F)cc2)c(C)c1S(=O)(=O)N1CCCCC1 | inactive: 72% |
| CC(C)NC(=O)C1CCCN(S(=O)(=O)c2ccc(-n3cnnn3)cc2)C1 (stereo not drawn) | inactive: 76% |
| Cc1c(C(=O)Nc2cccc(C(F)(F)F)c2)oc2ccc(S(=O)(=O)N3CCC4(CC3)OCCO4)cc12 | inactive: 67% |
| CC(C)(C)C(=O)Nc1nnc2n1CCS2 | inactive: 85% |
| COc1ccc(NC(=O)CSc2c3c(nc4ccccc24)CCC3)cc1Cl | inactive: 134% |
| CCOc1ccccc1N(C)C(=O)c1cc(S(=O)(=O)NCCc2ccc(Cl)cc2)ccc1F | inactive: 85% |
| Cc1ccccc1CNC(=O)CCc1cn(Cc2ccccc2C)c2ccccc12 | inactive: 58% |
| CCN(CC)S(=O)(=O)c1ccc(NC(=O)c2ccc3c(=O)n4c(nc3c2)CCCCC4)cc1 | inactive: 72% |
| CCOc1ccc(NC(=O)c2ccc3c(c2)nnn3C2CCCC2)cc1 | inactive: 122% |
| COc1ccc(N2CCN(C(=O)c3cnc(SC)nc3C)CC2)cc1 | inactive: 75% |
| COc1ccc(-c2cc3c(=O)n(CC(=O)Nc4ccc(Br)c(C)c4)ccn3n2)cc1OC | inactive: 83% |
| O=C(CSCc1ccc(F)cc1)N1CCc2c([nH]c3ccccc23)C1c1ccc(F)cc1 (stereo not drawn) | inactive: 75% |
| CCCc1c(C)c2ccccc2[nH]c1=O | inactive: 79% |
| Cc1cc(S(=O)(=O)Nc2cc3c(cc2NCc2ccccc2)n(C)c(=O)n3C)ccc1F | inactive: 61% |
